Assay results reported in PubChem BioAssay (NCI).
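Five compound concentrations were applied to cells in 96-well plates for 48 hours; endpoints were derived by simple linear interpolation of the resulting dose-response curve. TGI: total growth inhibition.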 A number of entries come with more than one value. The list is limited to them. There may be further records. Records of one sample usually come from different ranges of test concentrations, which the source does not state; some values may only mark the edge of a range.

Tested on: MDA-MB-468 breast
Test: DTP human tumour cell line panel, 48 h

## CN[C@H]1C=C[C@@H]2/C=C(C)/C=C/[C@@H](C)[C@H]([C@H](C)[C@H](O)[C@@H](C)NC(C)=O)OC(=O)/C=C/C=C(C)\C=C\[C@]2(C)C1
  TGI: 148 nM and > 49 µM
